{"source": "paper PMC10726135", "note": "Some of the results follow. At the low end of the ranking the order means little. The protein was read in a cell extract, so binding may be indirect.", "data": [{"biological_target": "T1, HNF4alpha8 (COS-7 nuclear extract) (UniProt P41235-5)", "T1 sequence": "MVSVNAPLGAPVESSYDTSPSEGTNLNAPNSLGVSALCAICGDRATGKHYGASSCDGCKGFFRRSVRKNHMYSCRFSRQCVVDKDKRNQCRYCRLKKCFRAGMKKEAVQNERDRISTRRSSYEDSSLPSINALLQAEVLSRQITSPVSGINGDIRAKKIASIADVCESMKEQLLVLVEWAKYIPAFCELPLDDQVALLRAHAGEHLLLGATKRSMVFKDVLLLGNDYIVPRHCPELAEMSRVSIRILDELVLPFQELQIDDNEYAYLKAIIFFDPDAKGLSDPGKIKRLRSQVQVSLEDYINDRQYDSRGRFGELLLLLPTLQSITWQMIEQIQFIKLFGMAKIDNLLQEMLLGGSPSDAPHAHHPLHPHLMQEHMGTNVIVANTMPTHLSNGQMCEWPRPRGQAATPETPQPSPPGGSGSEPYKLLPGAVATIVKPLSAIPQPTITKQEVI", "assay": "protein-binding microarray", "details": "COS-7 nuclear extract on double-stranded Agilent 4x180k PBM; binding buffer, salt, pH and temperature not given; high values mean tight binding; double strand, one strand shown; sequences stand for … in …GCCTAGGGAGATTAGAGTATCGGTCGA", "values": [{"sequence": "GGCGTCTTATCAGCCCCCATGTCAGGGAAG", "binding signal (log2 normalized intensity)": 2.78}, {"sequence": "CAAAGTACATATTTACTTACCTTTTCTAAT", "binding signal (log2 normalized intensity)": 0.989}, {"sequence": "ACCTAGAGGAGAGAGTAAATAATTGATGAA", "binding signal (log2 normalized intensity)": -1.41}, {"sequence": "AGGCTAGTAACACTCACATTCCACGTTTGG", "binding signal (log2 normalized intensity)": -0.281}, {"sequence": "GATGCTAGGTTTGTGAGTCCAAAGGTCAGC", "binding signal (log2 normalized intensity)": 9.81}, {"sequence": "GTAGCTCAAACAGTCTAAAAACCATAGACA", "binding signal (log2 normalized intensity)": -1.26}, {"sequence": "CTGCTTGGGAGAACCTGTGCTTCTGGTTCT", "binding signal (log2 normalized intensity)": 0.312}, {"sequence": "TACGCAACTGAAATTGCACTCTTTGACTAA", "binding signal (log2 normalized intensity)": -0.153}, {"sequence": "CATTTGCTTGACCCGGGTACTGGAAACTGG", "binding signal (log2 normalized intensity)": 1.61}, {"sequence": "GCAGAGCAGTTTAGAGAAAGGGTCAAAGGT", "binding signal (log2 normalized intensity)": 6.23}, {"sequence": "ACTTCAAAAGCCGGGGAAAGGGAAAAAGGG", "binding signal (log2 normalized intensity)": -1.3}, {"sequence": "AACAGCTGTGCCATGCTTTTCAGTGCAAGG", "binding signal (log2 normalized intensity)": -1.23}, {"sequence": "GCGCCGGGGGGACGCGCTTGGGCGACGGAC", "binding signal (log2 normalized intensity)": -1.27}, {"sequence": "AGATACTATAATTAGAATCTGCAGGATCCC", "binding signal (log2 normalized intensity)": -1.13}, {"sequence": "ATCATAGTGTTTGCCTTATTTGAACACAGT", "binding signal (log2 normalized intensity)": 1.81}, {"sequence": "CCTCCCCCTTGGTGTTTAAACACATTTTTT", "binding signal (log2 normalized intensity)": 2.52}, {"sequence": "ACATTGGAATGCGGGCTCCACCACTTGCTC", "binding signal (log2 normalized intensity)": -1.29}, {"sequence": "AGTCCAGCTGTGCCCCAGTCCTTCAGTCCT", "binding signal (log2 normalized intensity)": 0.453}, {"sequence": "ACTTAAAAGAAGCTACTAGCAAATCTGCCC", "binding signal (log2 normalized intensity)": -0.288}, {"sequence": "ATGACCCTAATGGGGTACTTGAACCCTACT", "binding signal (log2 normalized intensity)": 3.93}, {"sequence": "GTTCCAAACCTACACAGACCCTCTTTTCTT", "binding signal (log2 normalized intensity)": -1.08}, {"sequence": "CCAGTGGAATGCAAATATAGAAATAAAAGA", "binding signal (log2 normalized intensity)": -1.3}, {"sequence": "TGCAGATAAGCCACGAGCCTGCCTGCTCCT", "binding signal (log2 normalized intensity)": -1.19}, {"sequence": "AGATGGATTACATGGGAGATAGAGCAGTGG", "binding signal (log2 normalized intensity)": -1.26}, {"sequence": "GGACTTTGTGCAAATGGAAAATTGTAATCT", "binding signal (log2 normalized intensity)": 2.53}, {"sequence": "TTAAGAAGTAGGTGTGCCTCCTCCATCTCC", "binding signal (log2 normalized intensity)": -0.958}, {"sequence": "GAAATGTAGTGACAGAAGGGAGAGTCCAAG", "binding signal (log2 normalized intensity)": 0.199}, {"sequence": "TACAGTTCTGGAGGTGAGAAGCCTGAAATG", "binding signal (log2 normalized intensity)": -1.34}, {"sequence": "AAGAATTCTTTCTCAAATATGTTTAACCTG", "binding signal (log2 normalized intensity)": 1.33}, {"sequence": "TAAAGTCTACAAGTGGATATTCAGACCTCT", "binding signal (log2 normalized intensity)": 0.293}, {"sequence": "CCCTTCCTGGCCAACATCCAGGCCTGGCAG", "binding signal (log2 normalized intensity)": -1.39}, {"sequence": "ATAAGGCGTAGTTCAGAGAAAACGAGGCAC", "binding signal (log2 normalized intensity)": -1.12}, {"sequence": "CGCTTTCATGAGATGAAAGCTTCTGCGGAA", "binding signal (log2 normalized intensity)": -1.12}, {"sequence": "TGCAAGTACGATTGGCTGGACATCTGGGAT", "binding signal (log2 normalized intensity)": -1.03}, {"sequence": "TGCTTTCTTATCTGGGGGCCATTCCTCTAT", "binding signal (log2 normalized intensity)": 1.4}, {"sequence": "TTAATGCCTGGGAACACAATAGGAATTCAA", "binding signal (log2 normalized intensity)": -1.3}, {"sequence": "CCTCCATTAACTAACCTTTGAACCAGATGG", "binding signal (log2 normalized intensity)": 5.69}, {"sequence": "ATGCAATTTCTGAGAGAGAAAGAGACAGAG", "binding signal (log2 normalized intensity)": -1.36}, {"sequence": "TCAGGTTTCAAATACTCCAGTCATTGTACA", "binding signal (log2 normalized intensity)": 0.913}, {"sequence": "CACTTTAGGTGCTCTTGGCTAAGACAGGGG", "binding signal (log2 normalized intensity)": -1.37}, {"sequence": "CCTTTGTATATTCCCTTTGTATGGCAGGGG", "binding signal (log2 normalized intensity)": 2.11}, {"sequence": "AAACAGGGAGCAGGCAGATTTGACCTACGG", "binding signal (log2 normalized intensity)": 2.58}, {"sequence": "ATTTCACAAAGGGCAAAGTCCCCTTTCCTC", "binding signal (log2 normalized intensity)": 6.36}, {"sequence": "GACACACCTAGGGAGTTAATCACAGGATTT", "binding signal (log2 normalized intensity)": -1.21}, {"sequence": "GGGAACAAAACTTCACCTCCCCTAGACTTA", "binding signal (log2 normalized intensity)": 2.07}, {"sequence": "ACACAATATTATGTTTTGTTATCTGTGCCA", "binding signal (log2 normalized intensity)": 0.628}, {"sequence": "GTTCCAAAGTCCACCGTGGTGTAGAGGCCC", "binding signal (log2 normalized intensity)": 4}, {"sequence": "CCTTATGTAACTGTAACTATATTGACCACC", "binding signal (log2 normalized intensity)": 1.98}, {"sequence": "TGGAGTTTGCCCTTCACAAATTAGACAAGG", "binding signal (log2 normalized intensity)": 2.42}, {"sequence": "ACAGATTAAGTCACGTGGAGATAACACACA", "binding signal (log2 normalized intensity)": -1.01}, {"sequence": "CAGACCTTTGCCCTTTGTTTACATAGCTCC", "binding signal (log2 normalized intensity)": 4.61}, {"sequence": "CCTCTGCCTCTTGACCCCTTGGCCCCGCTG", "binding signal (log2 normalized intensity)": 4.87}, {"sequence": "GTAGACTAACGTATGGACTTTCTGATGTCA", "binding signal (log2 normalized intensity)": 2.18}, {"sequence": "GCAGTTTCTGCTATCTGCCTGCAGGAGAGA", "binding signal (log2 normalized intensity)": -1.08}, {"sequence": "CCTACTCATTCATATCACCTAGGTGGAATC", "binding signal (log2 normalized intensity)": 1.77}, {"sequence": "CTGAACTTTAAACTGGTGTGTCTTGCCTTT", "binding signal (log2 normalized intensity)": 2.42}, {"sequence": "GGGCCTCCATATTTGGAAGTAAGAACCCCA", "binding signal (log2 normalized intensity)": 2.17}, {"sequence": "AAAGAGCCATGGACTGCTGACCTTTGAACC", "binding signal (log2 normalized intensity)": 9.59}, {"sequence": "GTCATTGATGAAACTCCTTCCCTTTCATGT", "binding signal (log2 normalized intensity)": 1.43}, {"sequence": "AATCAAACTGAACTTTGAAACAAGCCCATC", "binding signal (log2 normalized intensity)": 3.87}, {"sequence": "ACGCAAGCGAGTAAGGCCCGTGAGATTGAA", "binding signal (log2 normalized intensity)": -0.921}, {"sequence": "GGAGGTTATCTTGGGGCTGATGTCTTTCTG", "binding signal (log2 normalized intensity)": 1.68}, {"sequence": "ACCGGCAGAGAGAAGCCACTGCGACCTTTG", "binding signal (log2 normalized intensity)": 5.59}, {"sequence": "AGTTGGTTGGAGCTATGGGCAGAAAAAAAT", "binding signal (log2 normalized intensity)": -0.989}, {"sequence": "TAAAGTCCGAACCTGCCAAAGAAGAAAACA", "binding signal (log2 normalized intensity)": -1.36}, {"sequence": "CTTCCACCAGGGCTAGACCCGTCAGCCCTG", "binding signal (log2 normalized intensity)": -1.12}, {"sequence": "AGAGCATGAGAACTTCTTCCAATGAAAGGT", "binding signal (log2 normalized intensity)": -1.13}, {"sequence": "CCTTTGAAGTGGGGGTGAGTCAGTCCCCAG", "binding signal (log2 normalized intensity)": 1.57}, {"sequence": "ACGGTGCAGGGAGGATATCCCTCCGCCTCC", "binding signal (log2 normalized intensity)": -1.26}, {"sequence": "GGCTGGTTTAACTGACCCAGGGAGAAAGGT", "binding signal (log2 normalized intensity)": 0.159}, {"sequence": "CAAAGACTAATGCATTCCCAGCAAGTGAAG", "binding signal (log2 normalized intensity)": -1.37}, {"sequence": "GATTGTCACAAGACTGTTATCACAGCTGGC", "binding signal (log2 normalized intensity)": -1.38}]}]}
